Read counts are not given, so values of variants with three or more changes are uncertain.
B1: CPEB3 Ribozyme (parent)
chain: UAACAGGGGGCCACAGCAGAAGCGUUCACGUCGCAGCCCCUGUCAGAUUCUGGUGAAUCUGCGAAUUCUGCUGUAUAUCUC

Variants of: B1
Test: self-cleavage, relative activity (ratio to wild type); higher = more cleavage; in vitro, sequencing
Outline: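 Libraries of CPEB3 self-cleaving ribozyme mutants came from rounds of error-prone PCR and carried barcodes, which DNA sequencing matched to variants. In vitro transcription used T7 RNA polymerase at 37°C for 5 hours, with a further 15 min in DNase I before EDTA stopped the reaction; the ribozymes cleaved during both steps. The RNA was reverse transcribed with template switching and sequenced on Illumina. Relative activity is the cleaved/total read fraction of a variant divided by that of the unmutated ribozyme, averaged over three batches with at least 5 reads.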

| Variant | self-cleavage |
| --- | --- |
| C14A A21G U72C | 1.02 |
| C14U A28G A64G | 0.57 |
| A13U U25C C44U U80C | 0.48 |
| A13U C44G U72A | 0.16 |
| A13U C27U U78A | 0.18 |
| C14G C23U U69A A77G | 0.04 |
| A13U U31C A45G | 0.86 |
| A13U G36U U69A | 0.08 |
| C14U A18G A28G U69C U80C | 0.82 |
| C14G G33A U43A U60C G63U | 0.12 |
| A13U G24C A75C | 0.21 |
| A13U U51C A65U | 0.3 |
| C14A U31C A65G | 0.29 |
| C14G G16U A64G U67C | 0.04 |
| A13U U26A A77C | 1.04 |
| A13U C23G C32A U41C | 0.22 |
| A13U U49C A64G | 0.19 |
| A13U U54C U58C U60A U67C | 0.12 |
| A13U G30A U72C U80G | 0.08 |
| A13U U31A U69C | 0.24 |
| A13U C27A A56U U74G U78A | 0.12 |
| C14A A21G U80C | 0.95 |
| A13U U31A A35G A65U U66C | 0.34 |
| C14A C23A U48C | 0.17 |

| Variant | self-cleavage |
| --- | --- |
| A13U U26C U31A A35U | 0.18 |
| A13U U31A U67A | 0.13 |
| C14A A18U A21G A77G | 0.22 |
| A13U U48C U66C A75G | 0.32 |
| A13U U72A U80C | 0.93 |
| C14U A18U C79A | 0.71 |
| A13U U26C C34U U41A U54C A56U | 0.12 |
| A13U U31A U54C U72C | 0.59 |
| C14U A18G G24A U26C G33A U51C C79A | 0.05 |
| A13U U43C U80A | 1.06 |
| C14U A18G U60C | 0.3 |
| A13U C27A G46C U48C A64G | 0.15 |
| C14A U49C A57U | 0.34 |
| A13U U25C A35G U43C U67A | 0.21 |
| A13U U72C U80A | 1.01 |
| A13U U25C A57G | 0.19 |
| A13U U26C A45U A47G U54G U67G U72C | 0.05 |
| A13U U31C U41C U51C U74C U78C | 1.07 |
| A13U U54C U58C U60A A65G | 0.25 |
| A13U U67C U69A | 0.2 |
| C14U A21G U41A U60A | 0.09 |
| C14U A20G U41A U72A | 0.16 |
| A13U U31C U43A A64G | 0.68 |
| A13U U31A U78C | 0.67 |

| Variant | self-cleavage |
| --- | --- |
| A13U U49A U67C | 0.2 |
| C14U A28G C39A U41C U49C U58A U67C | 0.14 |
| A13U U51C U78A | 1.28 |
| A13U U31C U69C U72A | 0.33 |
| A13U C17U A45C A64G | 0.06 |
| A13U G33A A35G A45U G52A U66A | 0.05 |
| A13U U26A A28G U31C U51A U58A C81G | 0.06 |
| A13U U41C A56G U58C | 0.22 |
| A13U U31C U43C A77U | 0.36 |
| C14U A18U A20G U26C G55A A75G | 0.21 |
| A13U G30A U31C U41A U48C | 0.18 |
| C14U A20G U67C | 1.09 |
| A13U U26C A45G C50U U51C U72C | 0.22 |
| C14U A20G U26A U54A | 0.54 |
| A13U G19U A77G | 0.23 |
| C14U A21G A77G | 0.97 |
| A13U U74C U80C | 1.27 |
| A13U U41A A64G A65G U69C | 0.21 |
| C14A U54C A65G | 0.36 |
| A13U U43C U54A U60A U69A | 0.13 |
| A13U U58A U74C | 0.72 |
| C14G A21U U51A | 0.31 |
| C14G A20G A45G | 0.32 |
| C14G A20G A45U | 0.35 |

| Variant | self-cleavage |
| --- | --- |
| C14A U25C U48C A57G U80A | 0.1 |
| C14U A20U A35G U49C A56G U69C | 0.18 |
| A13U U26A U69C | 0.28 |
| C14A C29G U41C A57G | 0.15 |
| A13U U58A G63A A65U | 0.45 |
| A13U U51A U80A | 1.27 |
| A13U U51C U54C | 1.01 |
| A13U U76A A77G | 1.16 |
| A13U U48C U54C U67A U80C | 0.45 |
| A13U G19U A45U U60A | 0.07 |
| A13U C38U U41A U60A | 0.08 |
| A13U G42A A45U A65G U69A | 0.03 |
| A13U U43C A57U U72C | 0.13 |
| A13U U31C U41C | 0.85 |
| C14U A18U U49A | 0.32 |
| A13U U25C G33A G36U | 0.07 |
| C14A A21U A35G C44G | 0.41 |
| C14G U25C U26C U60C U67A | 0.16 |
| C14U A20G A21G U25A G46U A56U U67C | 0.06 |
| A13U U25C A47G A56U G70A A77G | 0.04 |
| A13U U26C U41A U48A U54A A57G U58C | 0.03 |
| C14A U51A U72C U78A | 1.31 |
| A13U G36U U41A A47G U58C | 0.13 |
| A13U U43A U58C | 1.01 |

| Variant | self-cleavage |
| --- | --- |
| A13U C32U A57G U74C | 0.63 |
| C14A A28G C29U A45U G73A | 0.39 |
| A13U U25C A35U A47U A56G U60A U69A | 0.14 |
| C14A C17G G70A | 0.74 |
| A13U C34U G42U A45G U60C U66C U72C | 0 |
| A13U U51C A56G G70A U80C | 0.51 |
| A13U U25C A77G | 0.34 |
| A13U U43C A56G A64G A65G U78A | 0.11 |
| A13U C44U A56G | 0.13 |
| C14U A20U A47G A56G | 0.49 |
| A13U U26G G30A A35G G42A U72C | 0.06 |
| A13U U25C U54C U58C | 0.08 |
| A13U U60C U67C G73A | 0.31 |
| A13U C27A U74G U78A | 0.17 |
| A13U U26C U49A C68A | 0.22 |
| A13U C38A U41A A75G | 0.13 |
| A13U C40U U41A A47G A64G U74C | 0.16 |
| A13U U31C U76A | 1.08 |
| A13U U26G U54C C79A | 0.25 |
| A13U U54G U66C U67C A75U | 0.13 |
| C14U A20G A35G | 1.15 |
| C14U A35G A65U | 1.14 |
| A13U U26C U31C C81U | 0.35 |
| A13U U25C C44G G53U U74C U76C | 0.05 |

| Variant | self-cleavage |
| --- | --- |
| A13U U41G U54C U58C U60C U69C C79U | 0.14 |
| A13U U26C A57U U60C C71U | 0.1 |
| A13U G36U C40U U54C U69A | 0.12 |
| A13U U26C A75G | 0.28 |
| A13U C29G U41A | 0.3 |
| A13U U48C U67C | 0.22 |
| A13U U43C U51C | 0.93 |
| A13U U41C U48C U60C U78C | 0.38 |
| A13U C27U G33A | 0.13 |
| A13U U31C A64G U72A | 0.22 |
| A13U C32G U76A | 0.19 |
| C14A U51G G61A | 0.32 |
| C14U A18C A35G | 0.74 |
| C14A U54C U76C | 1.08 |
| A13U U41G A56G A57G U72C U78C | 0.06 |
| A13U U43A A47G U80A | 1.25 |
| A13U G36A G55A | 0.16 |
| A13U U25A U43A U58C U60A | 0.06 |
| A13U U43C U49C U51C | 0.18 |
| A13U U25C U41A U49C U66A | 0.04 |
| C14A U43C A45U A64G U66C U72C | 0.13 |
| A13U U26C A57U U69A | 0.11 |
| A13U U54G A65G C68A U72A | 0.14 |
| A13U U31C U43C A56U A77U | 0.11 |

| Variant | self-cleavage |
| --- | --- |
| C14G U31A C38U A75U A77U | 0.28 |
| A13U G42A A45G U78C U80C | 0.16 |
| A13U C23U U54G | 0.39 |
| A13U U26A U41C A45U G61U A64G | 0.08 |
| C14U A15U U43C U51C U74C | 0.67 |
| A13U U25A U78C | 0.49 |
| C14A A18U U48C | 0.23 |
| C14U A20G A28G U43A U49C U67A | 0.04 |
| A13U U26C G42A A45G C50U U51C | 0.08 |
| A13U U43C U67A A77U | 0.43 |
| A13U U51C C81A | 1.08 |
| A13U U25C U26C C34A A35G A45C U72C | 0.07 |
| A13U U26A G33A U69C U72C | 0.07 |
| C14A U43C U69C U74C | 0.22 |
| A13U C14U C17U U66C | 0.56 |
| A13U C32A U67A U72C | 0.11 |
| A13U U41C A75U | 1.23 |
| A13U C27A C34G C40U | 0.31 |
| C14U A20U C38G C40A A57G U58C | 0.04 |
| A13U U25C U41A U43A A57G U60G | 0.18 |
| A13U G16A A35U U54C U67C | 0.1 |
| A13U U31C U60C U67A | 0.2 |
| A13U G19A A21G | 0.18 |

Source: the RNAGym collection of RNA variant scans (doi:10.1093/nar/gkz1192)
